Experimental data from article PMC4336329 (PLoS ONE, 2015).
The campaign covered roughly 310,000 compounds. About 14,000 (4.5%) showed an effect of 50% or more. Effects have a minus sign here. This is one part of the list.

target: human ether-à-go-go-related gene (hERG) potassium channel (human, UniProt Q12809); assay: primary screen, population patch clamp on CHO cells stably expressing hERG
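Note: peak tail current of the secondary pulse compared with the same well before compound.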

Sequence of human ether-à-go-go-related gene (hERG) potassium channel (Q12809 whole entry, looked up): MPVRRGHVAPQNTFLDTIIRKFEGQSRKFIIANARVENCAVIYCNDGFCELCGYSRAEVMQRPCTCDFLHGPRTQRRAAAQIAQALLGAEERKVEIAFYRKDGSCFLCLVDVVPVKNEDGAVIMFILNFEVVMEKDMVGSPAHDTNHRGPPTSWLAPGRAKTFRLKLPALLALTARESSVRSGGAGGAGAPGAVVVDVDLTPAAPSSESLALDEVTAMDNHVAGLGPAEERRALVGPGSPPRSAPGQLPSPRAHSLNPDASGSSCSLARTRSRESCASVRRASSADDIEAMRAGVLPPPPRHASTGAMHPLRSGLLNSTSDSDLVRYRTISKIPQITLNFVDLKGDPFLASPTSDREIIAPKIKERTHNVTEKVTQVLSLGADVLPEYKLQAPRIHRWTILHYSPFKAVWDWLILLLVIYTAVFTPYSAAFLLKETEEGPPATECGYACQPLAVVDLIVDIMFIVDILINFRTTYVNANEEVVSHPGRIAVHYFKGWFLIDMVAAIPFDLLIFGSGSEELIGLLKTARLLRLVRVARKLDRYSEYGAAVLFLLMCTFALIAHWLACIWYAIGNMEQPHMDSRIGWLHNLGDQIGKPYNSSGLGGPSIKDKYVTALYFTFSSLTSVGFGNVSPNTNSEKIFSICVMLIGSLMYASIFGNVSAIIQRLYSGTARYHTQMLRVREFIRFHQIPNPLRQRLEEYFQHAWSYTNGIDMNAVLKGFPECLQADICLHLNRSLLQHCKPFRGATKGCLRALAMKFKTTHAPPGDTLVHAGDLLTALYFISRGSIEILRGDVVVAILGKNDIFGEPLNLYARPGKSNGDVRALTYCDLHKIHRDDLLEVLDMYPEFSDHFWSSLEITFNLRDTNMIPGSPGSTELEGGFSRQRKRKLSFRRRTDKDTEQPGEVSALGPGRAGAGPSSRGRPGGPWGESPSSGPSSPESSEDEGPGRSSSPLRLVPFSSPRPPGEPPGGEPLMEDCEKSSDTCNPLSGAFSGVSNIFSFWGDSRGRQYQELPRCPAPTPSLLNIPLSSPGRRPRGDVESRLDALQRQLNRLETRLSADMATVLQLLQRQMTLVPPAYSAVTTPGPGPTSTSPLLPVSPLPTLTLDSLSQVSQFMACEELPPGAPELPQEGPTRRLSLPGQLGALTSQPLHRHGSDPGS

Row | Compound | hERG current change (%, negative = inhibition) at 10uM
1 | O=c1[nH]c(=O)c2ccccc2[nH]1 | 13.1%
2 | CC(C)(C)OC(=O)NCCc1nnc(SCc2ccccc2Cl)o1 | -23%
3 | CC(C)C(=O)c1cc2c(cc1NC(=O)c1ccccc1)OCCO2 | 21.2%
4 | O=C(O)c1cccc(NC(=O)c2ccc3c(c2)C(=O)N(CC2CCCO2)C3=O)c1 (stereo not shown) | 3.92%
5 | O=C(O)CN1C(=O)c2ccc(Oc3cccc4c3C(=O)N(CC(=O)O)C4=O)cc2C1=O | 7.52%
6 | Cc1nnc(SCc2cccc([N+](=O)[O-])c2)o1 | 11.3%
7 | CCN(c1cccc(C)c1)S(=O)(=O)c1csc(C(N)=O)c1 | 11.8%
8 | COC(=O)c1c(C)[nH]c(C(=O)OCC(=O)N(CC(C)C)c2c(N)n(Cc3ccccc3)c(=O)[nH]c2=O)c1C | -5.09%
9 | O=C(Nc1nc2ccc(S(=O)(=O)N3CCCC3)cc2s1)c1ccco1 | 11.5%
10 | O=C(NCc1ccccc1)N1CCN(c2ccc(Cl)c(Cl)c2)CC1 | 14.3%
11 | Cc1ccc(Cc2nnc3n(-c4cccc(C)c4)nc(C(=O)c4ccccc4)n3c2=O)cc1 | -3.85%
12 | O=C(CSc1nnc(-c2cccc(S(=O)(=O)N3CCCC3)c2)n1-c1ccccc1)Nc1cccc(C(=O)O)c1 | -19.9%
13 | COc1ccc(CNC(=S)Nc2cccc(F)c2)cc1 | -5.98%
14 | Cc1cc(C)c2c(N)c3ccccc3nc2n1 | -53.9%
15 | O=C(CSc1ccccc1C(=O)N1CCCCC1)NCC1CCCCC1 | 10.4%
16 | O=C(O)C(=O)O.Oc1ccccc1CNCCCN1CCOCC1 | 16.3%
17 | COc1ccc(C2C3=C(CC(C)(C)CC3=O)Oc3ncn(CCO)c(=N)c32)cc1OC (stereo not shown) | -24.5%
18 | COC(=O)c1cn(C(=O)c2cc(Br)ccc2Cl)c2ccccc12 | 22.2%
19 | CCC(C)Nc1nc(-c2cccc(OC)c2O)nc2ccccc12 (stereo not shown) | -5.73%
20 | C/C(=N\NC(=O)Cn1nnc2ccccc21)c1ccco1 | 24%
21 | Cc1ccc2cccc(Oc3ncnc4sc(C)c(C)c34)c2n1 | 15.3%
22 | CCCCCCCCCCCCCCCC(=O)NCCO | 9.93%

Row | Compound | hERG current change (%, negative = inhibition) at 10uM
23 | CNC(=O)C1CCN(S(=O)(=O)c2c(C)noc2/C=C/c2ccc(OC)cc2)CC1 | -5.2%
24 | CCOC(=O)C1CCN(C(=O)CN(c2ccc3c(c2)OCCO3)S(=O)(=O)c2ccccc2)CC1 | -53.1%
25 | c1ccc(CN2CCN(c3nc(-c4ccccc4)nc(-n4ccnc4)n3)CC2)cc1 | -7.81%
26 | Cn1c(=O)[nH]c(=O)c2c1nc(SCCCO)n2CCCc1ccccc1 | -22.8%
27 | CCOC(=O)Nc1ccc2c(c1)N(C(=O)CN1CCN3CCCC3C1)c1ccccc1CC2.Cl (stereo not shown) | -43.2%
28 | Nc1ccc(S(=O)(=O)N2CCCC2C(=O)O)cc1 (stereo not shown) | -1.72%
29 | CN(c1ccc(OCC(=O)OCC(=O)Nc2ccccc2)cc1)S(=O)(=O)c1ccc(F)cc1 | -11.9%
30 | NC(=O)CC(NC(=O)Cc1cccc2ccccc12)c1ccc(NCCc2cccc(F)c2)c([N+](=O)[O-])c1 (stereo not shown) | 4.2%
31 | Cc1cc(C)nc(Nc2cc([N+](=O)[O-])ccc2C)n1.Cl | 9.26%
32 | CC1=CCC2C(=O)N(c3ccc(S(N)(=O)=O)cc3)C(=O)C2C1 (stereo not shown) | 11.2%
33 | COc1ccc(C(=O)C[n+]2cc(Br)cc3ccccc32)cc1[N+](=O)[O-].[Br-] | -66.3%
34 | Cc1c(NS(=O)(=O)c2ccc(Br)cc2)c(=O)n(-c2ccccc2)n1C | -6.03%
35 | CCOc1ccc(N(CC(=O)Nc2ccccc2C(=O)N2CCOCC2)S(=O)(=O)c2ccc(F)cc2)cc1 | -30.5%
36 | COc1ccc(S(=O)(=O)NNC(=O)c2ccc([N+](=O)[O-])cc2)cc1 | 5.85%
37 | Cc1ccc(CNC(=O)[C@H]2C[C@@H]2[C@H](NP(=O)(c2ccccc2)c2ccccc2)c2ccccc2)o1 | -20.8%
38 | COc1ccc(CCNC(=O)C2CCCN2C(=O)Nc2ccc(F)cc2)cc1OC (stereo not shown) | 16.5%
39 | CN1CCN(c2nc(N3CCN(CCO)CC3)nc3ccccc23)CC1.Cl | 7.33%
40 | O=C1NC2(CCCCC2)C(=O)N1Cc1ccc([N+](=O)[O-])cc1 | -47.7%
41 | CCOC(=O)Cc1nn(CCc2ccccn2)c(=O)c2ccccc12 | -6.89%
42 | O=C(COc1ccccc1)N1CCN(C(=O)c2ccc([N+](=O)[O-])cc2)CC1 | -62.4%
43 | CC(C)(C)c1ccc(C(=O)NNC(=S)NC(=O)c2cccnc2)cc1 | 10.9%
